Assay results from PMC4336329 (PLoS ONE, 2015).
Out of some 310,000 compounds screened, about 14,000 (4.5%) showed an effect of 50% or more. Effects have a minus sign here. Some of the results follow.

Molecular target: human ether-à-go-go-related gene (hERG) potassium channel (human, UniProt Q12809)
Assay: primary screen, population patch clamp on CHO cells stably expressing hERG
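Note: peak tail current of the secondary pulse compared with the same well before compound.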

human ether-à-go-go-related gene (hERG) potassium channel, sequence (Q12809 whole entry, looked up): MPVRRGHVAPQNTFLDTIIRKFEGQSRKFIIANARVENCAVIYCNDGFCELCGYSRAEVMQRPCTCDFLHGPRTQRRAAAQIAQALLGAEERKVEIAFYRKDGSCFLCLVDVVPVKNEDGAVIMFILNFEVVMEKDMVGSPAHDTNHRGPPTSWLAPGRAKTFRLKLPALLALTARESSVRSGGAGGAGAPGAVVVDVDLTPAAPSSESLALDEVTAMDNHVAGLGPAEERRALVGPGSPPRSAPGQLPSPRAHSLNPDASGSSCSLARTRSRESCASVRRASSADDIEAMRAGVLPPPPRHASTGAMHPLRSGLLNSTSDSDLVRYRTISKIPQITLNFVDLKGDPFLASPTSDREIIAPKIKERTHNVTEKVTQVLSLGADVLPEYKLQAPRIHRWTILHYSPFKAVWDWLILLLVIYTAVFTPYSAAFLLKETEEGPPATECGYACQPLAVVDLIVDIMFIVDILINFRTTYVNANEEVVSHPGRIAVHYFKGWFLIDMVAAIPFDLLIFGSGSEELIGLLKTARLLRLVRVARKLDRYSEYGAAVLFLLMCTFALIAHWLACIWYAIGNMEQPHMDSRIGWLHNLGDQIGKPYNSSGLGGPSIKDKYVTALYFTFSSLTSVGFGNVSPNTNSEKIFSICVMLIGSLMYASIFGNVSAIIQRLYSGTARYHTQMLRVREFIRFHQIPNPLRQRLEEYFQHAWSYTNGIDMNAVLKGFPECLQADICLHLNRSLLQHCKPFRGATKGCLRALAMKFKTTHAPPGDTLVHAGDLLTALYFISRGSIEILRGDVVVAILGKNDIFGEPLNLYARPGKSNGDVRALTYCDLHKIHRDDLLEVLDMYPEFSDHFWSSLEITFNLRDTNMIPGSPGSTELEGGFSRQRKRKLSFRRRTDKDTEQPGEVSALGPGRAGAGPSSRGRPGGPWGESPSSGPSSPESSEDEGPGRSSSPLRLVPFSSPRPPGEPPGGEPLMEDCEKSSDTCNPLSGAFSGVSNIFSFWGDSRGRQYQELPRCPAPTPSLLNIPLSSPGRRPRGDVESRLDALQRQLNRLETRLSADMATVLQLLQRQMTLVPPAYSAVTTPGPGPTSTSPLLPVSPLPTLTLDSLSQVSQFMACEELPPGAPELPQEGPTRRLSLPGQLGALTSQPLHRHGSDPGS

| Structure (SMILES) | hERG current change (%, negative = inhibition) at 10uM |
| --- | --- |
| Cc1ccc(-c2cc(C(=O)NCc3ccc4c(c3)OCO4)no2)cc1 | -0.641% |
| CC(C)Oc1ccc(C(CC(=O)NCc2ccco2)c2ccccc2)cc1 (stereo not drawn) | 4.55% |
| O=C(COC(=O)c1cc(Cl)ccc1O)NC(=O)NCc1ccccc1 | 4.6% |
| Cc1ccc2oc(C(F)(F)C(F)F)cc(=O)c2c1 | -1.7% |
| CC(C)c1nnc(NC(=O)C2CCCN2C(=O)Nc2ccccc2)s1 (stereo not drawn) | 17.3% |
| COc1cc(/C=C/C2=NNC(=O)CC2)cc(OC)c1OC | 10.8% |
| O=C(NCc1nc(-c2ccc(Cl)cc2)no1)c1ccco1 | -12.7% |
| O=C1c2ccccc2CN1c1ccccc1 | 8.96% |
| CCC1C(=O)C(CC)C(c2ccccc2)NC1c1ccccc1 (stereo not drawn) | 11.9% |
| CC(=O)NNc1ncnc2c1cnn2-c1ccc(C)cc1 | 7.67% |
| CCc1ccccc1OCc1nnc(N)s1 | 2.48% |
| CC(C)Oc1ccc(-c2nc(NCC3CCCO3)c3ccccc3n2)cc1 (stereo not drawn) | -27.4% |
| CCOC(=O)Cn1c(=O)c2c(nc(Br)n2CC(=O)OCC)n(C)c1=O | -4.97% |
| O=C(c1cccc(S(=O)(=O)Nc2ccccc2Cl)c1)N1CCN(c2ccccc2O)CC1 | -15% |
| Cc1ccc(NC(=O)C2CCCN(C(=O)c3ccc(Cl)cc3)C2)cc1 (stereo not drawn) | -33.4% |
| CC(=O)Nc1ccc(NC(=O)c2ccccc2S(=O)(=O)c2ccc([N+](=O)[O-])cc2)cc1 | 6.38% |
| CCN(CC)c1ncnc2sc3c(c12)CCC3.Cl | -20.4% |
| CC(C)c1ccc(N)c(S(=O)(=O)O)c1 | 8.28% |
| O=C(N/N=C1\CC2CC=CC12)c1ccccc1Cl (stereo not drawn) | 12.2% |

| Structure (SMILES) | hERG current change (%, negative = inhibition) at 10uM |
| --- | --- |
| Nc1c(C(=O)NC2CC2)c2nc3ccccc3nc2n1-c1ccc2c(c1)OCO2 | 4.49% |
| CCCCNS(=O)(=O)c1ccc2nc(SCC(=O)c3ccccc3OC)[nH]c2c1 | 6.03% |
| COc1ccccc1CN1C(=O)C(=O)N(Cc2cccc(C)c2)C1=O | 7.63% |
| Cc1nn(Cc2c(F)c(F)c(F)c(F)c2F)c(C)c1NC(=O)c1ccc(COc2ccccc2Cl)o1 | -19.4% |
| Fc1cccc(F)c1-c1nc(-c2ccncc2)no1 | 13.8% |
| CCCc1cc(C(=O)NNC(=S)NCC)c2ccccc2n1 | 18.1% |
| CN(Cc1ccccc1)c1ccc(S(=O)(=O)N2CCC(C(=O)O)CC2)cc1[N+](=O)[O-] | 22.1% |
| Cc1cccc(N(C)S(=O)(=O)c2csc(C(N)=O)c2)c1 | 8.51% |
| CCN(CC)c1ccc(CNc2nnnn2C)cc1 | 19.3% |
| COc1cc(C2CC(C(F)(F)F)n3ncc(C(=O)O)c3N2)cc(OC)c1OC (stereo not drawn) | 2.77% |
| Cn1ccnc1SCC(=O)Nc1cc(C(F)(F)F)ccc1N1CCOCC1 | -18.3% |
| NS(=O)(=O)c1ccc(OC(=O)CNC(=O)OCc2ccccc2)cc1 | 11% |
| CC(=O)Nc1ccc(S(=O)(=O)NC2(C(F)(F)F)NC(=O)N(CC(C)C)C2=O)cc1 (stereo not drawn) | 15% |
| COc1ccc(C(=O)O)cc1NC(=S)NC(=O)/C=C/c1ccc(C(C)C)cc1 | 11.5% |
| O=C1CCCN1CCCNS(=O)(=O)c1ccc(Br)cc1 | 15.8% |
| O=[N+]([O-])c1cccc(/C=N/NS(=O)(=O)c2ccccc2)c1 | 21.7% |
| Cc1ccc(C(=O)NCCSC2CCCCC2)cc1S(=O)(=O)Nc1ccccc1 | -2.9% |
| Cc1cccc(CSc2nnnn2-c2ccccc2)c1 | -6.7% |
| CCN(CC)S(=O)(=O)c1ccc(NCC2COc3ccccc3O2)c([N+](=O)[O-])c1 (stereo not drawn) | -4.6% |

| Structure (SMILES) | hERG current change (%, negative = inhibition) at 10uM |
| --- | --- |
| Cl.O=C(NCCCN1CCOCC1)c1cc2c(s1)CCCC2 | -25% |
| Cc1ccccc1N1CC(C(=O)N2CC(C)OC(C)C2)CC1=O (stereo not drawn) | 11.2% |
| Cc1cccc(Nc2nc(-c3ccncc3)cs2)c1 | -1.2% |
| Cc1ccc(NC(=O)CN2C(=O)NC3(CCCCC3C)C2=O)cc1S(=O)(=O)N1CCCCC1 (stereo not drawn) | -15.4% |
| CC(=O)c1ccc(N2CCN(C(=O)C3CCN(C(=O)Nc4ccccc4)CC3)CC2)cc1 | -14% |
| Cc1sc2nc3c(SC(C)C(=O)O)cc(C(=O)c4ccccc4O)cn3c(=O)c2c1C (stereo not drawn) | 7.32% |
| COc1ccc(C(=O)NC2=NCCS2)cc1 | 16% |
| COc1ccc(OC)c(-c2cc(-c3cccnc3)nc(N)c2C#N)c1 | 7.56% |
| COc1ccc(-c2nnc(SC)nc2-c2ccc(OC)c([N+](=O)[O-])c2)cc1[N+](=O)[O-] | 5.51% |
| Cc1cccn2c(=O)c3cc(C(=O)NCCC4=CCCCC4)n(C)c3nc12 | 10.6% |
| Cc1sc2nc(CSc3nnc(Cc4cccs4)n3C3CCCCC3)[nH]c(=O)c2c1C | 3.46% |
| CC(C)CCn1c(SCCc2ccccc2)nc2c1c(=O)[nH]c(=O)n2C | 16.1% |
| CCc1ccc(N2C(=O)CN(Cc3ccc(OC)c(OC)c3)C2=S)cc1 | -3.14% |
| CCc1ccc(NC(=O)NCCN2CCCCC2)cc1 | -49.3% |
| CCS(=O)(=O)N1CCN(c2ccc([N+](=O)[O-])c(NC(C)c3ccccc3)c2)CC1 (stereo not drawn) | -4.64% |
| CC(=O)Nc1nc2ccc(S(=O)(=O)N3CCCC3)cc2s1 | -2.85% |
| Cc1cc(/C=N/Nc2nc(N)ncc2[N+](=O)[O-])c(C)n1-c1ccccc1F | 20.2% |
| COc1cc(OC)c(S(=O)(=O)Nc2ccc(C)cn2)cc1NC(C)=O | -8.05% |
| O=S(=O)(c1ccc(F)cc1)N1CCN(c2nc(-c3ccc(F)cc3)cs2)CC1 | -8.44% |
